Data on 88 molecules can be found in publication PMC4336329 (PLoS ONE, 2015).

Each structure is given as a SMILES string. Out of some 310,000 compounds screened, about 14,000 (4.5%) showed an effect of 50% or more. Effects have a minus sign here. The list shows a part of the results.
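Note: peak tail current of the secondary pulse compared with the same well before compound.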

The target of this experiment is human ether-à-go-go-related gene (hERG) potassium channel (human, UniProt Q12809). The experiment is described as follows: primary screen, population patch clamp on CHO cells stably expressing hERG.
Sequence of human ether-à-go-go-related gene (hERG) potassium channel (Q12809 whole entry, looked up): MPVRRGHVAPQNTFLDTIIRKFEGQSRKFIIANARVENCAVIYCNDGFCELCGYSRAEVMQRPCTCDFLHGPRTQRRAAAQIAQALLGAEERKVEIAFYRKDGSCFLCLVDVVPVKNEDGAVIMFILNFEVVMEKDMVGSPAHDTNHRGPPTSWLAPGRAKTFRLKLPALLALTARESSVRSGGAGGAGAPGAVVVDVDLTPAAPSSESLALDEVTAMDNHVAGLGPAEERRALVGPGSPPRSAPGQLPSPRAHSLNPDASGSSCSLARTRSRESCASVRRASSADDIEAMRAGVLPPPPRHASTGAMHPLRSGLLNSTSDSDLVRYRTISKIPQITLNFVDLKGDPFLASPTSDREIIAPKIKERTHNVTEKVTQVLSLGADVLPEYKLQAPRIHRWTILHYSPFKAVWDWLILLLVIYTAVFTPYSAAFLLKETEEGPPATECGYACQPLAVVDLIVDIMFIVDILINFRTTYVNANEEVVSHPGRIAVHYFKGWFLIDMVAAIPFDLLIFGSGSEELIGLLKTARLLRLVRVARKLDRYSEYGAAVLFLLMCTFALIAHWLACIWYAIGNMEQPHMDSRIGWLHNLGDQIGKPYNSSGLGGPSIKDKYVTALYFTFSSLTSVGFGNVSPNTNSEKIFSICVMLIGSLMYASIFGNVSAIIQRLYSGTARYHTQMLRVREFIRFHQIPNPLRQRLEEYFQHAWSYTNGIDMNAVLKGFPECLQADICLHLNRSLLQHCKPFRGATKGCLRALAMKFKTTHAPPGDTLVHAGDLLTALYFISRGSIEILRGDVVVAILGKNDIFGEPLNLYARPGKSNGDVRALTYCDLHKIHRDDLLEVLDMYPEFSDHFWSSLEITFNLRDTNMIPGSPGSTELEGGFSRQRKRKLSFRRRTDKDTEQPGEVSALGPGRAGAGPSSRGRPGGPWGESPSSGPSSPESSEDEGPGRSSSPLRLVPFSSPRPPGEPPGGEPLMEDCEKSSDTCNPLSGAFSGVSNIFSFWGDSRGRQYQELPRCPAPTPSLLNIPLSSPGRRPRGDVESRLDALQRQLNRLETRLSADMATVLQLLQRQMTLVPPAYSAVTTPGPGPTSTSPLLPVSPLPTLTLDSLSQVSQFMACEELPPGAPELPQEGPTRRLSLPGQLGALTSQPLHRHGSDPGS
Regarding `COc1cccc2c1OCC/C2=N\NC(=O)COc1ccc(C)cc1`, the “hERG current change (%, negative = inhibition) at 10uM” value worked out at 11.6%.
Take `COc1cccc(C(=O)N(Cc2cc3cc(C)ccc3[nH]c2=O)C(C)C)c1`: the “hERG current change (%, negative = inhibition) at 10uM” value is -11.2%.
For the molecule `CCNC(=O)C(=O)NCCC1CCCCN1S(=O)(=O)c1cccs1` (stereo not shown), the “hERG current change (%, negative = inhibition) at 10uM” value was found to be 3.49%.
Take `CCC(C)[C@H](NC(=O)c1cc2cc(Cl)ccc2n1C)C(=O)N1CCC[C@H]1C(=O)O` (stereo partly shown): the “hERG current change (%, negative = inhibition) at 10uM” value was determined as 16.5%.
`CCOC(=O)C1CCN(CC(=O)Nc2c(C(=O)OC)[nH]c3cccc(C)c23)CC1`: the “hERG current change (%, negative = inhibition) at 10uM” value is recorded as -2.56%.
For `CCOC(=O)/C=C/C(=O)OCC(=O)Nc1ccc(C)cc1` the value was 11.4%; for `COc1ccc(S(=O)(=O)N2CCOCC2)cc1NC(=O)CCc1c[nH]c2ccccc12`, -13.1%; for `Cc1cc(C)c(S(=O)(=O)N2CCCC(C(=O)NCCC3=CCCCC3)C2)c(C)c1` (stereo not shown), 5.38%.
For `Cc1cccc(C(=O)NCCCNC(=O)c2ccco2)c1` the value was 11.5%; for `Cc1ccccc1Nc1c(C)c(C)nc2ncnn12`, 20.2%; for `N#CC(C(=O)Nc1ccccc1)=C1Nc2ccccc2N1`, 10.8%.
`Cc1cc(NC(=O)COC(=O)Cn2c(C)csc2=O)ccc1Br`: the “hERG current change (%, negative = inhibition) at 10uM” value is -6.11%.
Consider `O=C(c1ccco1)N1CCN(C(=O)c2[nH]ncc2[N+](=O)[O-])CC1`, for which the “hERG current change (%, negative = inhibition) at 10uM” value is recorded as -1.8%.
Regarding `COc1ccccc1N1CCN(C(CNS(=O)(=O)c2ccccc2)c2cccnc2)CC1` (stereo not shown), the “hERG current change (%, negative = inhibition) at 10uM” value is -7.98%.
For `COC(=O)c1cn(C(=O)c2ccccc2F)nc1N` the value was -5.96%; for `C=C(c1cccc2ccccc12)P(=O)(O)O`, 2.83%; for `O=C(CSc1nc2ncc(Br)cc2[nH]1)c1ccc([N+](=O)[O-])cc1`, -66.9%.
In the case of `COCCn1c(SC(C)C(=O)NCC2CCCO2)nc2scc(-c3ccc(F)cc3)c2c1=O` (stereo not shown) it was -66.5%.
For `COc1cccc(/C=C/C(=O)c2cccc([N+](=O)[O-])c2)c1`, the “hERG current change (%, negative = inhibition) at 10uM” value was -3.45%.
For `CC(=O)/C(=N\Nc1ccccc1)Sc1nncn1C` the value was 6.79%.
Consider `CCOC(=O)c1sc(Nc2nc3c(F)cccc3s2)cc1C`, for which the “hERG current change (%, negative = inhibition) at 10uM” value is recorded as 7.62%.
`Nc1nc(-c2ccccc2)c(-c2ccccc2)o1`: the “hERG current change (%, negative = inhibition) at 10uM” value came out at 10.9%.
For `Cc1nn(-c2ccccc2)c(Cl)c1/C=N/Nc1nnc(C)c(=O)[nH]1` the value was -0.145%.
As to `O=C(Nc1ccc(F)cc1)c1cccc(N2C(=O)C3C4C=CC(C5CC45)C3C2=O)c1` (stereo not shown), the “hERG current change (%, negative = inhibition) at 10uM” value worked out at 5.37%.
Consider `CCOC(=O)c1c(-c2cccs2)csc1NC(=O)CSc1ncn[nH]1`, for which the “hERG current change (%, negative = inhibition) at 10uM” value was determined as 11%.
With `CCOc1ccc(OCC(=O)OCc2cc(=O)n3cc(Br)ccc3n2)cc1`, the “hERG current change (%, negative = inhibition) at 10uM” value is 12%.
For `CCOC(=O)N1CCc2c(sc3[nH]c(=S)[nH]c(=S)c23)C1` the value was 13.4%.
As to `CCOc1ccc(NC(=O)CSc2nnnn2C2CC2)cc1S(=O)(=O)N1CCCC1`, the “hERG current change (%, negative = inhibition) at 10uM” value was -8.53%.
As to `COc1ccccc1Cn1c(-c2ccccc2OC)nc2ccccc21`, the “hERG current change (%, negative = inhibition) at 10uM” value is -20.1%.
On to `CN(C(=O)COC(=O)c1ccccc1Cc1ccccc1)c1c(N)n(Cc2ccccc2)c(=O)[nH]c1=O`, for which the “hERG current change (%, negative = inhibition) at 10uM” value was 9.7%.
For `O=C(Nc1ccc(OC(F)F)c(Cl)c1)c1cccc(OC(F)F)c1`, the “hERG current change (%, negative = inhibition) at 10uM” value is -61.7%.
With `O=C(NCC1CCCO1)c1nn2c(C(F)(F)F)cc(-c3ccc(Br)o3)nc2c1Br` (stereo not shown), the “hERG current change (%, negative = inhibition) at 10uM” value is on record as 2.59%.
Take `Cc1ccc(CNC(=O)c2ccccc2NC(=O)CN2CCN(C)CC2)cc1`: the “hERG current change (%, negative = inhibition) at 10uM” value was -59.2%.
For `CC1=C(C(=O)NCc2ccccc2)C(c2cccnc2)n2ncnc2N1` (stereo not shown), the “hERG current change (%, negative = inhibition) at 10uM” value turned out to be 2.59%.
For the molecule `CCSc1nc(N)c2c(C)c(C)sc2n1`, the “hERG current change (%, negative = inhibition) at 10uM” value was -2.68%.
For the molecule `O=C1CCSc2ccc(Cl)cc2N1Cc1ccc(Cl)cc1`, the “hERG current change (%, negative = inhibition) at 10uM” value is 14.1%.
As to `O=C1N/C(=C\c2ccc(N3CCOCC3)c(F)c2)C(=O)N1Cc1ccccc1`, the “hERG current change (%, negative = inhibition) at 10uM” value stood at 18.1%.
As to `O=C(CN1CCN(C(=O)c2ccco2)CC1)Nc1ccccc1-c1ccccc1`, the “hERG current change (%, negative = inhibition) at 10uM” value is on record as -50.5%.
For the molecule `Cc1nc(N2CCN(c3ccccc3F)CC2)[nH]c(=O)c1C`, the “hERG current change (%, negative = inhibition) at 10uM” value is listed as 17%.
Consider `COc1ccc(C(=O)NCc2nnc(SCC(=O)NC3=NCCS3)n2C)cc1`, for which the “hERG current change (%, negative = inhibition) at 10uM” value is listed as -5.57%.
Take `CCN(CC)S(=O)(=O)c1ccc(C)c(NC(=O)COC(=O)C=C(C)C)c1`: the “hERG current change (%, negative = inhibition) at 10uM” value was determined as 2.17%.
Take `CCn1c(COc2ccccc2C)nnc1SCC(=O)NCc1ccccc1`: the “hERG current change (%, negative = inhibition) at 10uM” value is on record as -25.2%.
In the case of `CCCCn1cnc2c(=S)nc(N)[nH]c21` it was 6.43%; in that of `O=c1c2c(-c3ccc(Cl)cc3)csc2nc2n1CCC2`, -28.9%; in that of `CCOC(=O)Cc1csc(NS(=O)(=O)c2ccc(C(F)(F)F)cc2)n1`, 20.6%.
In the case of `Cc1cc(C)cc(NC(=O)CN2CCN(c3ccccc3)CC2)c1` it was 7.33%; in that of `COC(=O)N1CCN(S(=O)(=O)c2ccc(F)cc2)CC1`, 4.01%; in that of `CCC(=O)Nc1ccc2c(c1)ncn2CCc1ccccc1`, -10.6%.
As for `COc1c(Cl)cc(C(=O)Nc2ccccc2C(=O)O)cc1Cl`, the “hERG current change (%, negative = inhibition) at 10uM” value is recorded as 47.3%.
On to `CCOc1ccc(CCNC(=O)C2CC(=O)N(CCc3ccccc3)C2)cc1OCC` (stereo not shown), for which the “hERG current change (%, negative = inhibition) at 10uM” value came out at 4%.
Turning to `COc1ccccc1CNS(=O)(=O)c1ccc(-c2cc(C)no2)cc1`, the “hERG current change (%, negative = inhibition) at 10uM” value is listed as 17%.
Consider `CC1CN(C(=O)CCC(=O)NCc2ccccc2)c2cc(Cl)ccc2O1` (stereo not shown), for which the “hERG current change (%, negative = inhibition) at 10uM” value was -11.5%.
Take `CCc1cccc(OCC(=O)Nc2ccc(C)c(S(=O)(=O)N3CCCCCC3)c2)c1`: the “hERG current change (%, negative = inhibition) at 10uM” value is listed as -2.51%.
For `CCOCCCN(C)C1CCN(C(=O)c2oc3ccccc3c2NC(=O)COc2ccc(F)cc2)CC1`, the “hERG current change (%, negative = inhibition) at 10uM” value was -80.1%.
Regarding `CCOc1ccc(OCC)c(NC(=O)CCS(=O)(=O)c2ccc(Br)s2)c1`, the “hERG current change (%, negative = inhibition) at 10uM” value amounted to 8.53%.
With `CN(c1ccccc1C(=O)Nc1ccccc1C(=O)NCc1ccco1)S(C)(=O)=O`, the “hERG current change (%, negative = inhibition) at 10uM” value is -13%.
Turning to `Cc1ccccc1NC(=O)CNc1ccccc1C(=O)NCc1ccco1`, the “hERG current change (%, negative = inhibition) at 10uM” value is listed as 8.35%.
With `O=C(Nc1ccc(F)cc1F)c1ccc2c(c1)OCCO2`, the “hERG current change (%, negative = inhibition) at 10uM” value worked out at 15.4%.
For `CC1(OC(=O)C2CCCC2)C(=O)C=C2C=C(c3ccsc3)N(CCc3ccccn3)C=C2C1=O` (stereo not shown) the value was -18.8%; for `Cc1ccc(C(=O)NNC(=O)c2cccnc2SCc2cccc([N+](=O)[O-])c2)cc1`, 19.4%; for `CN(C)S(=O)(=O)c1ccc(N2CCCC2)c(C(=O)NCc2cccc(C(F)(F)F)c2)c1`, 4.61%.
Consider `CCOC(=O)c1cn(C2CC2)c2c(F)c(NCCCN(C)C)c(F)cc2c1=O`, for which the “hERG current change (%, negative = inhibition) at 10uM” value is given as 10.7%.
For the molecule `COc1cc(/C=C/c2cc[n+](C)cc2)ccc1OCC(=O)Nc1ccccc1.[I-]`, the “hERG current change (%, negative = inhibition) at 10uM” value was 10.7%.
As to `Cc1cc(C(=O)OCC(=O)N2CC(=O)Nc3ccccc32)c(C)n1-c1ccccc1`, the “hERG current change (%, negative = inhibition) at 10uM” value is 4.06%.
Take `COc1ccc(-c2csc(NC(=O)c3ccco3)n2)cc1.Cl`: the “hERG current change (%, negative = inhibition) at 10uM” value was -5.12%.
Take `Cc1ccc(C)c(NC(=O)COC(=O)c2c(C)nn(-c3ccccc3)c2C)c1`: the “hERG current change (%, negative = inhibition) at 10uM” value was -3.78%.
Take `O=C(NC1CCCC1)C(c1c[nH]c2ccccc12)N(C(=O)Cn1nnc(-c2ccc(Cl)cc2)n1)c1ccccc1` (stereo not shown): the “hERG current change (%, negative = inhibition) at 10uM” value is -12.6%.
Turning to `Cn1ncc2c(NCc3ccccc3)nc(NCCCO)nc21`, the “hERG current change (%, negative = inhibition) at 10uM” value was found to be 9.11%.
In the case of `CNC(=O)NC(O)C(Cl)(Cl)Cl` (stereo not shown) it was 29.6%; in that of `Cc1ncc(CO)c(/C=N/Nc2ccc(C(F)(F)F)cn2)c1O`, -4.15%.
For the molecule `COc1ccc(Cl)cc1C(=O)Nc1ccc(NC(=O)c2ccco2)cc1`, the “hERG current change (%, negative = inhibition) at 10uM” value came out at 16.8%.
On to `Cc1c(C(=O)N2CCN(C(c3ccccc3)c3ccccc3)CC2)oc2ccccc12`, for which the “hERG current change (%, negative = inhibition) at 10uM” value is recorded as 11.2%.
Turning to `Cc1ccc(Nc2nc(Cl)c(C=O)s2)cc1`, the “hERG current change (%, negative = inhibition) at 10uM” value is listed as -0.0108%.
Take `O=C(c1ccccc1)c1ccc(Oc2ccc(C(=O)O)c(C(=O)O)c2)cc1`: the “hERG current change (%, negative = inhibition) at 10uM” value was 12.5%.
In the case of `Cc1ccsc1CNC12CC3CC(CC(C3)C1)C2.Cl` it was -19.2%.
On to `Clc1ccc(-n2nnnc2Sc2ncnc3sccc23)cc1`, for which the “hERG current change (%, negative = inhibition) at 10uM” value is 12.8%.
In the case of `O=S(=O)(Cc1nnnn1-c1ccccc1)c1ccc(F)cc1` it was 6.02%; in that of `CCOc1ccccc1N1CCN(S(=O)(=O)c2cccc3nsnc23)CC1`, -27%; in that of `CCOCCCNCc1ccc(OC)c(OC)c1.O=C(O)C(=O)O`, 3.24%.
In the case of `O=C(CN1C(=O)NC2(CCCC2)C1=O)Nc1cc(C(F)(F)F)ccc1N1CCCCC1` it was -0.754%; in that of `N#CCn1cc(/C=N/NC(=O)c2cc3c(ccc4ccccc43)o2)c2ccccc21`, 13.4%; in that of `C=CCNC(=O)c1ccc(C2SCC(=O)N2Cc2ccco2)cc1` (stereo not shown), -21.7%.
For `O=C(NCc1ccc(Cl)cc1)c1cnccn1`, the “hERG current change (%, negative = inhibition) at 10uM” value is given as -10.3%.
Regarding `Cc1cc(C)nc(SCC(=O)NN)n1`, the “hERG current change (%, negative = inhibition) at 10uM” value worked out at 21.1%.
On to `Cc1cccc(NC2SC(=O)NC2=O)c1` (stereo not shown), for which the “hERG current change (%, negative = inhibition) at 10uM” value is -11.3%.
`O=C(CSc1nnc(-c2ccncc2)n1Cc1ccco1)N1c2ccccc2Sc2ccc(Cl)cc21`: the “hERG current change (%, negative = inhibition) at 10uM” value is on record as -2.92%.
Turning to `CC(=O)NS(=O)(=O)c1ccc(NC(=O)CC23CC4CC(CC(Br)(C4)C2)C3)cc1`, the “hERG current change (%, negative = inhibition) at 10uM” value is on record as 25.9%.
In the case of `NC(=O)c1ccccc1OCC(=O)Nc1ccc(Cl)c(Cl)c1`, the “hERG current change (%, negative = inhibition) at 10uM” value is listed as 0.426%.
